In all, about 420,000 compounds went through this assay and about 50,000 (12%) were called active. The shares of active, inactive and inconclusive entries below differ from those in the screen. Calls follow the shape of the dose curve; as a rule, active = well fitted inhibition curve with a large enough effect; inconclusive = small, poorly fitted or top-dose-only effect; inactive = flat fitted curve, though single readings scatter. No potency is given beside an inconclusive call; the fits are too rough.
Assay: qHTS for Inhibitors of human tyrosyl-DNA phosphodiesterase 1 (TDP1): qHTS in cells in presence of CPT; also: nearly all actives have a fitted effect of over 55% in size
Settings: chicken DT40 Tdp1-/-;hTDP1 cells + 20 nM CPT, ATP luminescence, 48 h; activity change, negative = growth inhibition: at 46.2 µM (top of the series) unless noted
Outline: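 Cell growth measured by CellTiter-Glo luminescence after a minimum 48 h, 37 C compound exposure with 20 nM CPT in Tdp1-knockout DT40 cells stably expressing hTDP1, seeded 400/well; qHTS titration format.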
% is scaled to controls: 0 for no effect and ±100 for the full control effect; potency is read from the fitted curve at half-maximal effect; tags tell the direction and shape of the fitted curve.

For `O=C(NNC1CC(c2ccccc2)=NN1C(=O)c1ccccc1)c1ccccc1` (configuration not stated), which Potency is on record?
The Potency was active: 25.9 µM.

Which Potency does the source give for `COc1cccc(CN(C)C(=O)COc2cccc3c2OC(C)(C)C3)c1OC` here?
The Potency was inconclusive [inhibitor, single point].

With `CCOc1ccc(CCn2c3c(c(=O)[nH]c2=O)C(NC(=O)c2cccc(F)c2)(C(F)(F)F)C(=O)N3)cc1OCC` (configuration not stated) as the compound, how does the “activity change, negative = growth inhibition” value read?
The value was inactive: 6.11%.

For `Cc1nc2cc(NS(=O)(=O)c3cccc4cccnc34)ccc2s1`, which Potency is on record?
Its Potency is active: 16.4 µM.

For `Cc1nc(NC(=S)NC(=O)COc2ccc(Cl)cc2)ccc1Br`, which Potency is on record?
The Potency was inconclusive [inhibitor, single point].

With `COc1ccccc1N(CC(=O)NC1CCCC1)C(=O)c1oc(C(C)(C)C)cc1C` as the compound, how does the Potency read?
Its Potency is active: 23.1 µM.

Which Potency does the source give for `CC(C)(C)N(Cc1ccccc1)C(=O)CN1C(=O)NC2(CCCCCC2)C1=O` here?
The Potency was inconclusive [inhibitor, single point].

Which Potency does the source give for `Cc1nc2c(sc(=S)n2Cc2ccco2)c(=O)n1CC(=O)Nc1ccc(F)cc1` here?
Its Potency is inconclusive [inhibitor, partial curve].

With `Cc1noc(C)c1-c1cc(Nc2ccccc2)ncn1` as the compound, how does the Potency read?
Its Potency is inconclusive [inhibitor, single point].

Which Potency does the source give for `CCCCCn1c(N2CCCC2)nc2c1c(=O)n(C)c(=O)n2C` here?
The Potency was inconclusive [inhibitor, single point].

Which “activity change, negative = growth inhibition” value does the source give for `O=C(COC(=O)Cc1ccc(Cl)c(Cl)c1)Nc1ccc2[nH]c(=O)[nH]c2c1` here?
Its value is inactive: 4.07%.

With `O=C(N/N=C/c1ccc([N+](=O)[O-])o1)C(=O)Nc1ccc(C(=O)O)cc1` as the compound, how does the “activity change, negative = growth inhibition” value read?
The value was inactive: -24.1%.

Which Potency does the source give for `CC1(c2ccc(NC(=O)c3ccccc3F)cc2)CC1(Cl)Cl` (configuration not stated) here?
The Potency was inconclusive [inhibitor, partial curve].

Which Potency does the source give for `CC(C)NC(=O)Nc1ccc2c(c1)C(=O)N([C@@H](C)CO)C[C@H](C)[C@H](CN(C)S(=O)(=O)c1ccccc1)OCCCC[C@H](C)O2` here?
Its Potency is active: 18.4 µM.

With `CCC(CC)NCCOC(=O)c1ccc([N+](=O)[O-])cc1` as the compound, how does the “activity change, negative = growth inhibition” value read?
Its value is inactive: -2.54%.

For `O=C(CN1CCN(S(=O)(=O)c2ccc(Cl)cc2)CC1)Nc1ccc2c(c1)CCC2`, which Potency is on record?
Its Potency is inconclusive [inhibitor, single point].

With `COc1cc(-c2nc3sccn3c2Nc2c(C)cccc2C)ccc1O` as the compound, how does the Potency read?
The Potency was inconclusive [inhibitor, single point].

Which “activity change, negative = growth inhibition” value does the source give for `Cc1ccnc(NS(=O)(=O)c2ccc(NC(=O)Cc3ccc(F)cc3)cc2)n1` here?
The value was inactive: -2.92%.

For `Cc1cc(O)cc(C)c1Cl`, which Potency is on record?
Its Potency is “inactive”.

For `Cc1ccc(-c2nc(CS(=O)CC(=O)NC3CCC(C)CC3)c(C)o2)cc1` (configuration not stated), which Potency is on record?
Its Potency is inconclusive [inhibitor, partial curve].

With `Cc1csc(=O)n1CC(=O)OCC(=O)Nc1ccc(F)c(F)c1F` as the compound, how does the Potency read?
The Potency was inconclusive [inhibitor, single point].

Which Potency does the source give for `CCCCN(CCCC)CCCNC(=O)C12CN(Cc3ccccc3)CC1C(c1cccc([N+](=O)[O-])c1)=NO2` (configuration not stated) here?
Its Potency is inconclusive [inhibitor, single point].

For `COc1ccc(C2(C(=O)NCc3ccco3)CCCC2)cc1OC`, which Potency is on record?
The Potency was inconclusive [inhibitor, partial curve].

With `COc1cc(C(=O)Nc2cc(C(F)(F)F)ccc2N2CCOCC2)ccc1O` as the compound, how does the “activity change, negative = growth inhibition” value read?
Its value is inactive: -4.87%.

With `CCOC(=O)/C=c1\s/c(=C\c2ccc(C#N)cc2)c(=O)n1CC(=O)Nc1cccc(C)c1C` as the compound, how does the Potency read?
The Potency was active: 1.3 µM.

Which Potency does the source give for `Cn1ncc2c(N3CCN(c4ccc(F)cc4)CC3)ncnc21` here?
Its Potency is inconclusive [inhibitor, single point].

Which “activity change, negative = growth inhibition” value does the source give for `O=c1[nH]c(=S)[nH]c2nc[nH]c12` here?
Its value is inactive: 8.02%.

Which Potency does the source give for `CCn1c(C(=O)NCCc2ccc(S(N)(=O)=O)cc2)cc2sc(Cl)cc21` here?
Its Potency is inconclusive [inhibitor, single point].

For `CCc1cc(C(=O)Nc2cc(S(=O)(=O)N(CC)CC)ccc2N2CCN(C)CC2)sc1C`, which “activity change, negative = growth inhibition” value is on record?
Its value is inactive: -1.8%.

For `CC1Cc2ccccc2N1C(=O)CSc1nnc2c(n1)[nH]c1ccc(F)cc12` (configuration not stated), which Potency is on record?
Its Potency is inconclusive [inhibitor, single point].

For `O=c1[nH]nc(-c2ccc([N+](=O)[O-])o2)c(=O)[nH]1`, which “activity change, negative = growth inhibition” value is on record?
The value was inactive: 0.861%.

Which Potency does the source give for `COc1ccccc1/C=C1\S/C(=N/NC(=O)c2cccc(Br)c2)NC1=O` here?
Its Potency is inconclusive [inhibitor, single point].

For `Cc1ccc(-n2c(Cc3cccc4ccccc34)n[nH]c2=S)c(C)c1`, which Potency is on record?
The Potency was inconclusive [inhibitor, partial curve].

For `CC(=O)C1=CCC(c2ccc(Br)cc2)N(S(=O)(=O)c2ccc(C)cc2)C1` (configuration not stated), which Potency is on record?
Its Potency is active: 18.4 µM.

With `O=C(Nc1ccc2c(c1)OCCO2)C1CCCN(S(=O)(=O)c2cccc3nsnc23)C1` (configuration not stated) as the compound, how does the Potency read?
Its Potency is inconclusive [inhibitor, partial curve].

For `Nc1cc(N)nc(SCC(=O)Nc2ccc(Br)cc2Cl)n1`, which Potency is on record?
The Potency was inconclusive [inhibitor, single point].

For `Cc1cc(NC(=O)c2sc3ccccc3c2O)no1`, which Potency is on record?
The Potency was inconclusive [inhibitor, single point].

For `CC(=O)N1CCCC1c1nc2ccccc2n1Cc1ccccc1Cl` (configuration not stated), which Potency is on record?
Its Potency is inconclusive [inhibitor, single point].

For `CC(=O)CC1(OC(C)=O)C(=O)N(C)c2ccccc21` (configuration not stated), which Potency is on record?
The Potency was active: 3.66 µM.

Which Potency does the source give for `CCOc1ccc(-c2nnc3ccc(SCC(=O)Nc4nc5ccc(C)cc5s4)nn23)cc1` here?
The Potency was inconclusive [inhibitor, single point].

Which Potency does the source give for `O=C(Nc1ncccc1O)c1ccc(Oc2ccccc2)cc1` here?
The Potency was inconclusive [inhibitor, single point].

Which “activity change, negative = growth inhibition” value does the source give for `Cc1nn2c(Nc3ccc(F)cc3)c3c(nc2c1-c1ccccc1)CCC3` here?
The value was inactive: -17.6%.

With `CC(=O)Nc1cc(C(=O)O)ccc1S(=O)(=O)c1ccc(Cl)cc1` as the compound, how does the “activity change, negative = growth inhibition” value read?
Its value is inactive: -14.8%.

With `O=C(CN1CCN(c2ccc(O)cc2)CC1)Nc1cc(S(=O)(=O)N2CCOCC2)ccc1Cl` as the compound, how does the Potency read?
Its Potency is inconclusive [inhibitor, single point].

With `O=C(CCn1nc(-c2ccc(Cl)cc2)ccc1=O)N1CCN(c2ccc(F)cc2)CC1` as the compound, how does the Potency read?
Its Potency is inconclusive [inhibitor, single point].

Which Potency does the source give for `Cc1cccc(C)c1-n1ncc(C(=O)NCCCN2CCC(C)CC2)c1C1CCN(C(=O)OC(C)(C)C)CC1` here?
The Potency was inconclusive [inhibitor, single point].

Which “activity change, negative = growth inhibition” value does the source give for `Cc1cc(Nc2ccc(Br)cc2)nc(C)n1` here?
Its value is inactive: -28.6%.

For `CCC1CN(C(=O)N2CCC(C(=O)NCCc3ccc(OC)cc3OC)CC2)c2cc(C)ccc2O1` (configuration not stated), which Potency is on record?
The Potency was active: 20.6 µM.

For `Cc1nc(-c2ccc([N+](=O)[O-])cc2)nc2[nH]ccc(=O)c12`, which “activity change, negative = growth inhibition” value is on record?
The value was inactive: -5.06%.

For `O=C(NCc1ccc(F)cc1)C1CCN(S(=O)(=O)N2CCCC2)CC1`, which Potency is on record?
Its Potency is inconclusive [inhibitor, single point].

Which Potency does the source give for `O=C(Nc1ccc(N2CCCC2)c(Cl)c1)c1ccc(Br)o1` here?
Its Potency is active: 18.4 µM.

For `COc1ccc(S(=O)(=O)Nc2ccc3c(c2)C(=O)N([C@H](C)CO)C[C@@H](C)[C@@H](CN(C)S(=O)(=O)c2ccc(Cl)cc2)O3)cc1`, which Potency is on record?
Its Potency is inconclusive [inhibitor, single point].

For `COc1cc2c(c(OC)c1OC)-c1ccc(NC(=O)c3ccc(F)cc3)c(=O)cc1[C@@H](NC(C)=O)CC2`, which Potency is on record?
The Potency was active: 8.2 µM.

For `CSc1n[nH]c(-c2ccco2)n1`, which “activity change, negative = growth inhibition” value is on record?
The value was inactive: 2.51%.

For `CCOc1ccc(CN2C(=O)CCC2(C)C(=O)NCc2cccnc2)cc1` (configuration not stated), which “activity change, negative = growth inhibition” value is on record?
The value was inactive: -26.7%.

Which Potency does the source give for `COc1ccc2oc(=O)cc(-c3cc4ccccc4o3)c2c1` here?
The Potency was inconclusive [inhibitor, single point].

With `C=CCn1c(SCC(=O)N(CCOC)c2c(N)n(CC(C)C)c(=O)[nH]c2=O)nc2ccccc21` as the compound, how does the “activity change, negative = growth inhibition” value read?
Its value is inactive: 5.5%.

For `CCS(=O)(=O)c1ccc(O)c(NC(=O)c2cc(-c3ccccn3)nc3ccccc23)c1`, which Potency is on record?
Its Potency is inconclusive [inhibitor, single point].

Which “activity change, negative = growth inhibition” value does the source give for `COc1ccc(N=Nc2cc(-c3ccccc3)ccc2O)cc1` here?
Its value is inactive: -1.71%.

With `CN1CCN(c2ccc([N+](=O)[O-])cc2NC(=O)c2ccco2)CC1` as the compound, how does the “activity change, negative = growth inhibition” value read?
The value was inactive: -25.2%.

Which Potency does the source give for `CCOC(=O)c1c(NC(=O)CN2C(=O)NC3(CCCCC3)C2=O)sc(C)c1-c1ccc(C)cc1` here?
The Potency was active: 18.4 µM.

Which Potency does the source give for `C=CC(=O)NN(C)c1ncc(C(F)(F)F)cc1Cl` here?
The Potency was inconclusive [inhibitor, single point].

With `O=C(Nc1cccc2c1CCCC2)c1cc(C2CCCCN2S(=O)(=O)c2cccs2)on1` (configuration not stated) as the compound, how does the Potency read?
Its Potency is active: 16.4 µM.

Which Potency does the source give for `NC(=O)N/N=C/c1c(Sc2nnnn2-c2ccccc2)nc2ccccn2c1=O` here?
The Potency was active: 2.91 µM.

For `Cc1cc(S(=O)(=O)NC(C)C)ccc1OCC(=O)N1CCOCC1`, which activity change, negative = growth inhibition is on record?
Its activity change, negative = growth inhibition is inconclusive: -32.5% [inhibitor].

Which “activity change, negative = growth inhibition” value does the source give for `Cc1cc(C)c2cc(C#N)c(NCCNC(=O)c3ccccn3)nc2c1` here?
Its value is inactive: 4.21%.

Which “activity change, negative = growth inhibition” value does the source give for `O=C(OC1Cn2c(=O)ccc(=O)n2C1)c1ccc([N+](=O)[O-])cc1` here?
Its value is inactive: -7.16%.

Which Potency does the source give for `O=C(O)c1ccc(N/N=C/c2ccc3c(c2)OCO3)cc1` here?
Its Potency is inconclusive [inhibitor, single point].

With `Cc1c(/C(O)=C2\C(=O)C(=O)N(CCN(C)C)C2c2ccccc2)cnn1-c1ccccc1` (configuration not stated) as the compound, how does the “activity change, negative = growth inhibition” value read?
Its value is inactive: -0.547%.

With `COc1ccc(N=C2SCC(=O)N2Cc2ccccc2)cc1` as the compound, how does the Potency read?
The Potency was inconclusive [inhibitor, single point].

With `C[C@H]1CN(CCc2ccccc2)C(=O)[C@@H]1CC(=O)NCc1ccccc1` as the compound, how does the Potency read?
The Potency was inconclusive [inhibitor, partial curve].

For `CCc1cc2c(cc3c(=O)n(CC(=O)NC(C)c4ccccc4)ncn32)s1` (configuration not stated), which Potency is on record?
The Potency was inconclusive [inhibitor, partial curve].

Reference: PubChem BioAssay AID686979 (National Center for Advancing Translational Sciences (NCATS), 2013)
